# Assay results: article PMC5564613
# The chains behind the UniProt entries cited, without tags or fusion partners. Where a name states a change or a piece, a line headed by the entry shows the natural chain unless it says otherwise. A line that says so, or that is headed by a name, gives the form on record, which may keep a tag or linker.
# UniProt O43791: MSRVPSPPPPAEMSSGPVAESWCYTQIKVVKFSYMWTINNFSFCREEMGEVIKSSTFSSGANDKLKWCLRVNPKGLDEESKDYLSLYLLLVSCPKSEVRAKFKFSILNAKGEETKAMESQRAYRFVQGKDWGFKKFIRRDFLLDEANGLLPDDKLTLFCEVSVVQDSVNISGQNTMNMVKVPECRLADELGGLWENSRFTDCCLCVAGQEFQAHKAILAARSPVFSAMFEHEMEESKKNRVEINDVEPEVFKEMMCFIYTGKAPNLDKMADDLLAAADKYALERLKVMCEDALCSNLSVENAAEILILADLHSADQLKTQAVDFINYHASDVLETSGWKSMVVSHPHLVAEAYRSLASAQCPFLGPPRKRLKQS
# UniProt Q14145: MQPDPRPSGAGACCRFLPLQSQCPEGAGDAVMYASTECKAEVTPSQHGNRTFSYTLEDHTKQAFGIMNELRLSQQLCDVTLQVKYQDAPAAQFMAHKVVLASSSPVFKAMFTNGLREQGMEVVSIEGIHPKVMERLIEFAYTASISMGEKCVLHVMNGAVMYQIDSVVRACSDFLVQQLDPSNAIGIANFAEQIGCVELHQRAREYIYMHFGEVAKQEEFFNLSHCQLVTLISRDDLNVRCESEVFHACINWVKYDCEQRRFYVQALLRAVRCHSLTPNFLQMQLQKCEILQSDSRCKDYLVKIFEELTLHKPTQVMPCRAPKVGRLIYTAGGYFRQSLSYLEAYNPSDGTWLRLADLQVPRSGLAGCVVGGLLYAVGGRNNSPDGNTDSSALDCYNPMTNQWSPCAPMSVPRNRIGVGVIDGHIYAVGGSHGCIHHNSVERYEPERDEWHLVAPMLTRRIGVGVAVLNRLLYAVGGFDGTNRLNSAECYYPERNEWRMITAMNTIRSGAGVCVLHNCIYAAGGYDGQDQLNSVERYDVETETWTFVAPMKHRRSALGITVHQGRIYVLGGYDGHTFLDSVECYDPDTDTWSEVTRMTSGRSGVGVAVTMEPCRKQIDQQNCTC
# UniProt Q9UBN7: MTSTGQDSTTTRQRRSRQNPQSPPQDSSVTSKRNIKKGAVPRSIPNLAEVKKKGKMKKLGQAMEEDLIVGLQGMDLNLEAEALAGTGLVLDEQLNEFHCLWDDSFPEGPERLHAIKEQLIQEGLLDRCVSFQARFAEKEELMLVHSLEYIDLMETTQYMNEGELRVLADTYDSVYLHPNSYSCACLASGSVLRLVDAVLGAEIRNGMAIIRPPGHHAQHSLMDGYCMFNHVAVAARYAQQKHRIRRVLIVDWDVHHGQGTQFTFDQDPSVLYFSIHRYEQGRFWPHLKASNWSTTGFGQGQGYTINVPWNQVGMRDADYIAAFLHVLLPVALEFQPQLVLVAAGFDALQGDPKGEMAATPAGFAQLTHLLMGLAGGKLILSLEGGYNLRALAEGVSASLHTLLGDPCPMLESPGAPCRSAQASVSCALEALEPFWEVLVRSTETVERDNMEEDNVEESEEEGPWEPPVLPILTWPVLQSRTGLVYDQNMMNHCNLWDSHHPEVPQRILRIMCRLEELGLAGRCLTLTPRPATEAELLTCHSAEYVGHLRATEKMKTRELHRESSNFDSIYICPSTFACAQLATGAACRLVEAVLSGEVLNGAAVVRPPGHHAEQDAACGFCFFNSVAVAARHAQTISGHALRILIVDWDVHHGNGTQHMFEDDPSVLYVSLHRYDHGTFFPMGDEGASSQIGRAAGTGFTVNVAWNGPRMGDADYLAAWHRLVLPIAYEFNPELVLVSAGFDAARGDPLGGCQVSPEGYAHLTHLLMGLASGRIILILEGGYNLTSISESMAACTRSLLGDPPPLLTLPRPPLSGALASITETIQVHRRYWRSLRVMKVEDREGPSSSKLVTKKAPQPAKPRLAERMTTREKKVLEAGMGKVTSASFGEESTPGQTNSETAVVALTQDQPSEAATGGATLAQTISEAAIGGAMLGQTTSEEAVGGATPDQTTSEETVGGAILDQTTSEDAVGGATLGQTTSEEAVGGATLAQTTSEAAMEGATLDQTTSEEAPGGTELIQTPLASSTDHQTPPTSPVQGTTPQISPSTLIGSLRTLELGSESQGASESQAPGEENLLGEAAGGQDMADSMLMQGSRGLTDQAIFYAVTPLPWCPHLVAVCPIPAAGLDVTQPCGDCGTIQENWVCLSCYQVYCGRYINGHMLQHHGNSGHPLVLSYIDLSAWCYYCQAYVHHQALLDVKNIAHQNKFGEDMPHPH
# HDAC6 with deletion of degron 1 (ΔD1) (Q9UBN7, form named): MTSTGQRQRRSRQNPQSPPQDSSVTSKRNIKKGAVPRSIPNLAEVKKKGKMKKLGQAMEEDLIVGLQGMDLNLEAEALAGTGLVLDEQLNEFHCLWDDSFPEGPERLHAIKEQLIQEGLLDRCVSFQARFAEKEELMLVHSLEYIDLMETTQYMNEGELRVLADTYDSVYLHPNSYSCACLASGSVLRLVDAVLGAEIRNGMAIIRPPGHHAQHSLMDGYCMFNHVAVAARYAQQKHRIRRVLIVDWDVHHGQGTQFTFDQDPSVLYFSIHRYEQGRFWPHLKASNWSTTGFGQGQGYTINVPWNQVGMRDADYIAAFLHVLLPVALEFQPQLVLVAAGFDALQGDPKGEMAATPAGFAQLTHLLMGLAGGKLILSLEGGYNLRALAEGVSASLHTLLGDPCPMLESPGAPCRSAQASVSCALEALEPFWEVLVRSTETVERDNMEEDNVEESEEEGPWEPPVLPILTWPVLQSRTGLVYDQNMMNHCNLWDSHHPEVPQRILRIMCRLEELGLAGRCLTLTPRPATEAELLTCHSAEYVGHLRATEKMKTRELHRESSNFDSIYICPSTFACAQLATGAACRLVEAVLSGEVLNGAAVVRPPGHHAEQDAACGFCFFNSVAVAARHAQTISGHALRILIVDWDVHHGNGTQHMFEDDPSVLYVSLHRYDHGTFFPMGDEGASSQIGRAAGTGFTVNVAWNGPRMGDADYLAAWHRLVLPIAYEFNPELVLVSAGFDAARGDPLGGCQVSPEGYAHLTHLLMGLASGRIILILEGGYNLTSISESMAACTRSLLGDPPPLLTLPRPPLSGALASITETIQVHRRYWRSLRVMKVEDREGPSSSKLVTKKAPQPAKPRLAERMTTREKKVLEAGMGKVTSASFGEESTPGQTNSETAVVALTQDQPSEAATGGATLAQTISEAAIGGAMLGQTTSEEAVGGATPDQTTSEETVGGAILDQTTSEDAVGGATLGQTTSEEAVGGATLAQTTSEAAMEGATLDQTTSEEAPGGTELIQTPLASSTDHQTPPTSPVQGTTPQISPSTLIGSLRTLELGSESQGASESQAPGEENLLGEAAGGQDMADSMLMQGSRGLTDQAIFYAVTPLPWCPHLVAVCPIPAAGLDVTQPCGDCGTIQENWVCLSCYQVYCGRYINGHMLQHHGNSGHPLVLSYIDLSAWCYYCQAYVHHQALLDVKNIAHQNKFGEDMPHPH
# UniProt Q93034: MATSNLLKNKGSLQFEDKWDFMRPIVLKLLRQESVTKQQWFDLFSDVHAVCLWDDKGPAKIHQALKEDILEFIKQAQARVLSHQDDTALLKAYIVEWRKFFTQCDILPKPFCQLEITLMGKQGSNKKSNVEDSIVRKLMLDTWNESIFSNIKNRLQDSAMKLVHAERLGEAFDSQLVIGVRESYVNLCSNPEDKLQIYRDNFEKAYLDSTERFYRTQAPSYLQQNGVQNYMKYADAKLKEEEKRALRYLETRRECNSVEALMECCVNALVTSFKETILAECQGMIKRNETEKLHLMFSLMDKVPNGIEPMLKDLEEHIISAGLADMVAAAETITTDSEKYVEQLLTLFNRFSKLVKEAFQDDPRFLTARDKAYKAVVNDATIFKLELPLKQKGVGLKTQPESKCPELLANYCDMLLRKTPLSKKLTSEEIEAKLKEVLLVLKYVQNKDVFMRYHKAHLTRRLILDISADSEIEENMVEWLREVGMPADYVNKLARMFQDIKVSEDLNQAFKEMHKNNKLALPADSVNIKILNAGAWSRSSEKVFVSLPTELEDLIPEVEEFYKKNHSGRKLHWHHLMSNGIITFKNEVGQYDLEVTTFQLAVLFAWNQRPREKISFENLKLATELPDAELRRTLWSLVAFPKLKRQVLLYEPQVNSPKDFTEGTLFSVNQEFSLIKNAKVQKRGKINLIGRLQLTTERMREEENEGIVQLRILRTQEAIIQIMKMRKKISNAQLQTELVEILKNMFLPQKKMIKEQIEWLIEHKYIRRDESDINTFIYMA
# UniProt Q14999: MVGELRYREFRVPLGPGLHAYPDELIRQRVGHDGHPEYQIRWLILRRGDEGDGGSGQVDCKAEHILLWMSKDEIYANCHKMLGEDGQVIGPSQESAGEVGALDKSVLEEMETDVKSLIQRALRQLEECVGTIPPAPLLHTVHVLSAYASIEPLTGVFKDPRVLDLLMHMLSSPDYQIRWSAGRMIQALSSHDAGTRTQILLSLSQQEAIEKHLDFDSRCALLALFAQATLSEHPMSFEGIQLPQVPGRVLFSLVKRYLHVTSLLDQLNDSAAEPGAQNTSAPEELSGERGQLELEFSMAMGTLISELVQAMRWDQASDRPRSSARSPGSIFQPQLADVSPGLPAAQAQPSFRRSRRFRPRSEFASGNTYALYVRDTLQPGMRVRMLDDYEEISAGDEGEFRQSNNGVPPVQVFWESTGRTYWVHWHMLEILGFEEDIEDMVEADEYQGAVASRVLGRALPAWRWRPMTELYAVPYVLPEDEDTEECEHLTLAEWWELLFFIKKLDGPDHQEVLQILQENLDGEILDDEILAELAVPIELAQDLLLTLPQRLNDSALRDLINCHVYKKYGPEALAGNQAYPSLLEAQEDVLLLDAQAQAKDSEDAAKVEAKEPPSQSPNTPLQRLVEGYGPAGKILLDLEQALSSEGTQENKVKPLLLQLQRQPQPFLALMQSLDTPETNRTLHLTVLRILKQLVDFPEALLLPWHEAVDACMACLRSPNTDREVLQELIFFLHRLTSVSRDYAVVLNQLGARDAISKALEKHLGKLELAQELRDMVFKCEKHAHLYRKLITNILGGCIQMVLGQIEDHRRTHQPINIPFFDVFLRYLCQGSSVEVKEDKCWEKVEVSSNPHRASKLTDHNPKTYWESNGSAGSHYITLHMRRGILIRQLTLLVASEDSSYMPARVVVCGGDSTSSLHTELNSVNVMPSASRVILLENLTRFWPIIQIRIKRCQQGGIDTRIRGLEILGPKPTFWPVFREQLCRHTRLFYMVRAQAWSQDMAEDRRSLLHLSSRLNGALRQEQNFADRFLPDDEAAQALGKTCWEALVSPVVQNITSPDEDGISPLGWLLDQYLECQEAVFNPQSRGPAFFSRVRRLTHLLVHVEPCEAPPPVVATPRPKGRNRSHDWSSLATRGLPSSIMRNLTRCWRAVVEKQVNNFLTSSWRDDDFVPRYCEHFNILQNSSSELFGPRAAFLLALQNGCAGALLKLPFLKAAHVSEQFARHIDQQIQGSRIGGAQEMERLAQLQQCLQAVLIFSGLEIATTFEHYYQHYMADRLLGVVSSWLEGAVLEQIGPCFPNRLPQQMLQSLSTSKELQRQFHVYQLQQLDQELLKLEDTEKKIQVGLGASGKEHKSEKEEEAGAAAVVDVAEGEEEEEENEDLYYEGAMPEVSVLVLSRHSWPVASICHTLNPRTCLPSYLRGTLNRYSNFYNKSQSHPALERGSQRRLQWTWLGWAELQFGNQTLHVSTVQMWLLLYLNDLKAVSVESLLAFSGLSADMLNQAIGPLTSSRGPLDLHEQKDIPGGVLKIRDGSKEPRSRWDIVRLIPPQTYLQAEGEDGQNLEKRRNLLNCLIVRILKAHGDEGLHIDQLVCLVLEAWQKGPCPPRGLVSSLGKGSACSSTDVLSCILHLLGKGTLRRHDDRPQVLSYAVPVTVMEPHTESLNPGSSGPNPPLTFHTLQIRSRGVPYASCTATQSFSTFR
# These are yes or no findings as the source states them, for the method shown. In cells and extracts the contact can be indirect. Some results given as binding are weak or reduced against the parent protein; the word gives no strength. For some of these results: Where a sequence is shown, tags or fusion partners need not be part of it.
# How the values were obtained:
# [1] = biological target: GST-SPOP (pGEX-4T-1-SPOP) (human) (UniProt O43791); test: pull-down; GST pull-down from lysates of 293T cells transfected with HDAC6 constructs, treated with 10 μM MG132 for 12 hours; by the methods 1 mg lysate with 1 μg bacterial purified GST fused protein for 4 hours in the cold room, washed with NETN buffer; immunoblot; only the target purified
# Flag-Keap1 = Flag-Keap1 (UniProt Q14145); test: co-IP; 293T cells transfected with HA-HDAC6 and Flag-tagged Cullin 3 family adaptor constructs, treated with 10 μM MG132 for 12 hours before harvesting; lysis in EBC buffer, washed with NETN buffer; immunoblot
# Flag-PLZF = biological target: T1, Flag-PLZF (UniProt Q05516); test: as above
# T1 sequence: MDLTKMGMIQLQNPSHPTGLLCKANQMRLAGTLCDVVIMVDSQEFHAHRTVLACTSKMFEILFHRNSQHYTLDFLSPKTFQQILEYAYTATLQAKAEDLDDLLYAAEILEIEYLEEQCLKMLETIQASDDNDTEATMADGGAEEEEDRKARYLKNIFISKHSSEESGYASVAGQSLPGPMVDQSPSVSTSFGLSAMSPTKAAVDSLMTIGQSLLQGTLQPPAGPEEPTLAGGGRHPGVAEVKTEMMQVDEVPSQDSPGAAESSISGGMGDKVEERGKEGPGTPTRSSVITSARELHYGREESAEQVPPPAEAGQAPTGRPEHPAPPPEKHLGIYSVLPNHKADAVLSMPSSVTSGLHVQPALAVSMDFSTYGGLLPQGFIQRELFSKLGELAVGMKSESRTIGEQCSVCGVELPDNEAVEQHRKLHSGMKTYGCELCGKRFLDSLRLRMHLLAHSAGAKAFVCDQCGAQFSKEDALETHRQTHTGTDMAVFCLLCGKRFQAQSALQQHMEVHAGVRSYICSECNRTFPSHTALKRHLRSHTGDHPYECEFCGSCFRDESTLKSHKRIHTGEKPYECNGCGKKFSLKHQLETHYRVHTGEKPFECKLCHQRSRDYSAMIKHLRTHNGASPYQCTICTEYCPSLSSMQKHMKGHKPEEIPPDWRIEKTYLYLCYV
# Flag-SPOP WT (human) [2] = biological target: Flag-SPOP WT (human) (UniProt O43791); test: as above
# KLHL12 (Flag-tagged) = biological target: T2, KLHL12 (Flag-tagged) (UniProt Q53G59); test: as above
# T2 sequence: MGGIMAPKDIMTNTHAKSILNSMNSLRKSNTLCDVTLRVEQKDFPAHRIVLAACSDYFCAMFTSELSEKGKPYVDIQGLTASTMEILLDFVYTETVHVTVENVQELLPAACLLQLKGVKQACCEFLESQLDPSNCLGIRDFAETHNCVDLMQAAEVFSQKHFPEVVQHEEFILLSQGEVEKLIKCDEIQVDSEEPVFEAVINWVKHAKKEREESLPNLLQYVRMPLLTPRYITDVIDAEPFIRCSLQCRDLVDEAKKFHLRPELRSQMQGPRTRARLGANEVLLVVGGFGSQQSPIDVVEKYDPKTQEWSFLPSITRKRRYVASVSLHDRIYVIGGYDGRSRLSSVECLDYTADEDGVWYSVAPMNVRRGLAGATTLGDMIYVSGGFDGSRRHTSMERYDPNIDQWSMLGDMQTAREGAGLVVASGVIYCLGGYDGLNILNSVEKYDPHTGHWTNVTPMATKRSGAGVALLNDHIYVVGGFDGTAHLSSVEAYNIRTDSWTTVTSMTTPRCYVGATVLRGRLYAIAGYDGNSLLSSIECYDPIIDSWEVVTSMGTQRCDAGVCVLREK
# KLHL2 (Flag-tagged) = biological target: T3, KLHL2 (Flag-tagged) (UniProt O95198); test: as above
# T3 sequence: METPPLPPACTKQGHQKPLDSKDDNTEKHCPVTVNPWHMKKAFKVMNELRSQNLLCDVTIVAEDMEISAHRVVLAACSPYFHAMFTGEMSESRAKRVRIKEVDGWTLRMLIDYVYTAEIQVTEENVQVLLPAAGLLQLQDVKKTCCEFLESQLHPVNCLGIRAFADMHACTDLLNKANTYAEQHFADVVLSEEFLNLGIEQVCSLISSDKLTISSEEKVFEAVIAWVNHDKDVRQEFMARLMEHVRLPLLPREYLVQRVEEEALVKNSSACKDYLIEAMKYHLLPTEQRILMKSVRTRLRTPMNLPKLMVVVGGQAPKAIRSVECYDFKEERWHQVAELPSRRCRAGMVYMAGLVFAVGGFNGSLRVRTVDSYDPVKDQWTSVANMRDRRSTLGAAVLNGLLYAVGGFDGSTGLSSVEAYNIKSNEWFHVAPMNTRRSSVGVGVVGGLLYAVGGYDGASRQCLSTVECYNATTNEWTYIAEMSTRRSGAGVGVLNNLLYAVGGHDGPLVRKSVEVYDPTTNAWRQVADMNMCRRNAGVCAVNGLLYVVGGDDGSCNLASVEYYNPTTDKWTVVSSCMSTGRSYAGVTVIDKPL
# KLHL3 (Flag-tagged) = biological target: T4, KLHL3 (Flag-tagged) (UniProt Q9UH77); test: as above
# T4 sequence: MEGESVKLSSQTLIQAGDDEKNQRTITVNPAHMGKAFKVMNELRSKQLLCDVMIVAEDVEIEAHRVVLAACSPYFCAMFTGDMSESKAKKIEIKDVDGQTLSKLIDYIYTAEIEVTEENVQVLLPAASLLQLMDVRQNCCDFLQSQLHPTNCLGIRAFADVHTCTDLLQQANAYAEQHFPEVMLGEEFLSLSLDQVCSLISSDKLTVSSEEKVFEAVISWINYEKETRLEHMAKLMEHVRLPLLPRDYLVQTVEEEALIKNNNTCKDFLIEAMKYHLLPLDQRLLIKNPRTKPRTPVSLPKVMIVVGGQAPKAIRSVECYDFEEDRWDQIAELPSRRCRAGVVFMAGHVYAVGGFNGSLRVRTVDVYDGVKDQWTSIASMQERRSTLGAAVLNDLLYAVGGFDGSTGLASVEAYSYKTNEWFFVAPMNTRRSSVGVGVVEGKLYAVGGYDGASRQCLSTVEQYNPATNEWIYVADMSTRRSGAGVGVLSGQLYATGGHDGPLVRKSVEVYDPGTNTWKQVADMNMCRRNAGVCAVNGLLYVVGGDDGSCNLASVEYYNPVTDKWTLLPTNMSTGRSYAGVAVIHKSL
# KLHL37 (Flag-tagged) = biological target: T5, KLHL37 (Flag-tagged) (UniProt O14682); test: as above
# T5 sequence: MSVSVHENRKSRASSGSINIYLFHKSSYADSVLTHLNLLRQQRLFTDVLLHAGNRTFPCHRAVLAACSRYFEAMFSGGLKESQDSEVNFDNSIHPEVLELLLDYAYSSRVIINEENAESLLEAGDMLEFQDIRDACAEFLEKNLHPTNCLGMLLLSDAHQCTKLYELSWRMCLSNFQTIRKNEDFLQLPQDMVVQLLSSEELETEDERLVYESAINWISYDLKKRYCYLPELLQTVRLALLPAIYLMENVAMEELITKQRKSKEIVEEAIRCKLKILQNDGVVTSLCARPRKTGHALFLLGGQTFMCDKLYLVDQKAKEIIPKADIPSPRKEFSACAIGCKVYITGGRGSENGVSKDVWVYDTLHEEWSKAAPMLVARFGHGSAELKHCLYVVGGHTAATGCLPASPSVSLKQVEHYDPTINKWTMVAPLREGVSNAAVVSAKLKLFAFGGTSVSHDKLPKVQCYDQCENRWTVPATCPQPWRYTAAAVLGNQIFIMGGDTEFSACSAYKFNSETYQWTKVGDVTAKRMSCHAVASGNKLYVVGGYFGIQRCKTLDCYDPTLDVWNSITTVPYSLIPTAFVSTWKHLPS
# Flag-SPOP WT (human) [3] = biological target: Flag-SPOP WT (human) (UniProt O43791); test: pull-down; GST pull-down products derived from 293T cells transfected with indicated constructs; which partner carried GST is not told; immunoblot
# SPOP F102C (human) = SPOP F102C (human) (UniProt O43791); test: as above
# SPOP F133L (human) = SPOP F133L (human) (UniProt O43791); test: as above
# SPOP F133V (human) = SPOP F133V (human) (UniProt O43791); test: as above
# SPOP W131G (human) = SPOP W131G (human) (UniProt O43791); test: as above
# SPOP Y87C (human) = SPOP Y87C (human) (UniProt O43791); test: as above
# Flag-HDAC6 (human) = Flag-HDAC6 (human) (UniProt Q9UBN7); test: co-IP; 293T cells transfected with Flag-HDAC6 and Myc-Cullins, treated with 10 μM MG132 before harvesting; lysis in EBC buffer (50 mM Tris pH 7.5, 120 mM NaCl, 0.5% NP40), antibody-conjugated beads 4 hours in the cold room, washed with NETN buffer; immunoblot
substance,measurement,setting,value
Flag-HDAC6 (from UniProt Q9UBN7 1-1215),binding,[1],binds
HA-HDAC6 (from UniProt Q9UBN7 1-1215),binding,Flag-Keap1,no binding
same,binding,Flag-PLZF,no binding
same,binding,Flag-SPOP WT (human) [2],binds
same,binding,KLHL12 (Flag-tagged),no binding
same,binding,KLHL2 (Flag-tagged),no binding
same,binding,KLHL3 (Flag-tagged),no binding
same,binding,KLHL37 (Flag-tagged),no binding
HDAC6 (GST pull-down of Figure 5C) (from UniProt Q9UBN7 1-1215),binding,Flag-SPOP WT (human) [3],binds
same,binding,SPOP F102C (human),no binding
same,binding,SPOP F133L (human),no binding
same,binding,SPOP F133V (human),no binding
same,binding,SPOP W131G (human),no binding
same,binding,SPOP Y87C (human),no binding
HDAC6 with deletion of degron 1 (ΔD1) (from UniProt Q9UBN7 1-1215),binding,[1],binds
Myc-Cullin 4A (from UniProt Q13619 1-759),binding,Flag-HDAC6 (human),no binding
Myc-Cullin 4B (from UniProt Q13620 1-913),binding,Flag-HDAC6 (human),no binding
Myc-Cullin 5 (from UniProt Q93034 1-780),binding,Flag-HDAC6 (human),no binding
Myc-Cullin 7 (from UniProt Q14999 1-1698),binding,Flag-HDAC6 (human),no binding
